The supplement of paper PMC3334620
The full ranking holds about 33,000 sequences; the median of “E-score (-0.5 to 0.5)” is about -0.035, and the highest 2% start at about 0.34. The list shows a part of the results.

molecular target: T1, Mot3 (UniProt P54785); experiment: PBM E-score (8-mer binding enrichment) (E-score (-0.5 to 0.5)); higher = stronger / more preferred TF binding; most listed sequences are background and not binding sites; settings: protein concentration: 200 nM; construct: GST-full length
T1 sequence: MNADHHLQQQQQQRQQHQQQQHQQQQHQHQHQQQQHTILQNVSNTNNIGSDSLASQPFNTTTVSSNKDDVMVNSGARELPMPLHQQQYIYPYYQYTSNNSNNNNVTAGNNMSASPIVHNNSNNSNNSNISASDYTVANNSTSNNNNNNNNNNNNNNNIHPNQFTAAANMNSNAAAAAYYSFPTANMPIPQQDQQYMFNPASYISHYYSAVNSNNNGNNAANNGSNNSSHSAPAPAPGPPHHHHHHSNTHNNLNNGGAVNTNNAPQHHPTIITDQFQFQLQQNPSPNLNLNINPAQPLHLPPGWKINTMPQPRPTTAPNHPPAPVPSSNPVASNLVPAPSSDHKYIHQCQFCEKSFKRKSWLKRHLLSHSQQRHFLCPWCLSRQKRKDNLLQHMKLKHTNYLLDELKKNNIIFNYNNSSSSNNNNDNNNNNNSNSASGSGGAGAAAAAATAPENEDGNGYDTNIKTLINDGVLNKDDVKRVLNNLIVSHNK
Procedure, shortened: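 Full-length yeast transcription factors or their DNA-binding domains, GST-tagged and expressed with PURExpress, were applied at about 100-200 nM to universal all-10-mer Agilent arrays. These arrays had been made double-stranded by primer extension on fresh or once-stripped slides. Detection used fluorescent anti-GST, normalisation used masliner, and E-scores for ungapped eight-base words pooled with reverse complements came from the Universal PBM Analysis Suite.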

How did the “PBM E-score” value turn out when CGTTCAAA was run?
Its value is -0.112.

For CATTGAGA, which “PBM E-score” value is on record?
The value was -0.0927.

For GGATTCCC, which “PBM E-score” value is on record?
Its value is -0.299.

CAGCGTCA was tested. Which “PBM E-score” value did it give?
Its value is -0.168.

With CCAGGTCA as the sequence, how does the “PBM E-score” value read?
Its value is -0.0989.

How did the “PBM E-score” value turn out when AGCAAACA was run?
Its value is 0.0584.

How did the “PBM E-score” value turn out when GGGTTAAC was run?
The value was 0.197.

For ATTCCCCA, which “PBM E-score” value is on record?
Its value is -0.04.

For GGTTATCA, which “PBM E-score” value is on record?
Its value is -0.12.

For CTTCTGGC, which “PBM E-score” value is on record?
The value was -0.0901.

With AACTTTGT as the sequence, how does the “PBM E-score” value read?
The value was 0.112.

With CAGTAACC as the sequence, how does the “PBM E-score” value read?
Its value is -0.203.

For CACGGGCA, which “PBM E-score” value is on record?
Its value is 0.222.

For CCAGGCAA, which “PBM E-score” value is on record?
Its value is 0.477.

Which “PBM E-score” value does the source give for CTGCACCA here?
The value was -0.213.

With CCTAGTAC as the sequence, how does the “PBM E-score” value read?
The value was 0.162.

For TGCAACCA, which “PBM E-score” value is on record?
Its value is -0.0159.

For GTGGTGAA, which “PBM E-score” value is on record?
The value was -0.189.

With CCTGGACA as the sequence, how does the “PBM E-score” value read?
Its value is -0.0055.

For ACGACGGG, which “PBM E-score” value is on record?
Its value is -0.105.

How did the “PBM E-score” value turn out when CTCATGCC was run?
The value was 0.0205.

With AGCGAGAC as the sequence, how does the “PBM E-score” value read?
The value was -0.281.

Which “PBM E-score” value does the source give for CTTTTGTA here?
Its value is 0.259.

With AGAGGTCA as the sequence, how does the “PBM E-score” value read?
Its value is -0.293.

CGCCGTGA was tested. Which “PBM E-score” value did it give?
Its value is -0.0448.

With CACGGGGC as the sequence, how does the “PBM E-score” value read?
Its value is -0.106.

For CGCCATGC, which “PBM E-score” value is on record?
The value was -0.112.

For ATATAATA, which “PBM E-score” value is on record?
Its value is 0.108.

With GGGTAACA as the sequence, how does the “PBM E-score” value read?
Its value is 0.0919.

With CACGCGTC as the sequence, how does the “PBM E-score” value read?
The value was 0.123.

CCCTTAAC was tested. Which “PBM E-score” value did it give?
The value was -0.0497.

With AGACCCTC as the sequence, how does the “PBM E-score” value read?
Its value is -0.278.

Which “PBM E-score” value does the source give for ATCACTTC here?
Its value is -0.0779.

For GGACCTAA, which “PBM E-score” value is on record?
Its value is -0.145.

For GGTGTGGA, which “PBM E-score” value is on record?
Its value is -0.0515.

CATTCACG was tested. Which “PBM E-score” value did it give?
Its value is -0.103.

How did the “PBM E-score” value turn out when CGTGGAAG was run?
The value was 0.0258.

For CGCCTTAA, which “PBM E-score” value is on record?
The value was 0.323.

GGGGGACA was tested. Which “PBM E-score” value did it give?
The value was -0.115.

CAATTTCA was tested. Which “PBM E-score” value did it give?
The value was -0.0623.

Which “PBM E-score” value does the source give for AAAATACG here?
Its value is 0.219.

For CGGTCTAG, which “PBM E-score” value is on record?
Its value is -0.106.

GGAGGGCA was tested. Which “PBM E-score” value did it give?
Its value is 0.0299.

For TACTGGAA, which “PBM E-score” value is on record?
The value was 0.0214.

With GACTCTAC as the sequence, how does the “PBM E-score” value read?
The value was -0.19.

For ATGGATGC, which “PBM E-score” value is on record?
The value was 0.012.

How did the “PBM E-score” value turn out when CAGTACTG was run?
Its value is -0.132.

How did the “PBM E-score” value turn out when ATTAACCG was run?
Its value is 0.094.

Which “PBM E-score” value does the source give for ATCCAAAG here?
The value was 0.0763.

Which “PBM E-score” value does the source give for CGCCGCCG here?
The value was -0.168.

AAGGGGGG was tested. Which “PBM E-score” value did it give?
The value was -0.367.

For ACTAGGGC, which “PBM E-score” value is on record?
Its value is -0.0507.

For CAATCGTA, which “PBM E-score” value is on record?
Its value is 0.0685.

For GTCCTAAC, which “PBM E-score” value is on record?
The value was -0.0835.

With CACAGCGC as the sequence, how does the “PBM E-score” value read?
Its value is -0.0654.

CCCCAACG was tested. Which “PBM E-score” value did it give?
The value was -0.0913.

Which “PBM E-score” value does the source give for CGAGTAAC here?
The value was 0.0541.

Which “PBM E-score” value does the source give for TTCGACAA here?
The value was 0.179.

With ACTTCCCC as the sequence, how does the “PBM E-score” value read?
Its value is -0.21.

With CTAGCACA as the sequence, how does the “PBM E-score” value read?
Its value is -0.168.

ACGTGCAT was tested. Which “PBM E-score” value did it give?
Its value is 0.115.

Which “PBM E-score” value does the source give for CAGCACAC here?
Its value is -0.0921.

Which “PBM E-score” value does the source give for ACAACAAG here?
The value was 0.252.

GTGTATCA was tested. Which “PBM E-score” value did it give?
Its value is 0.138.

GGACCCTA was tested. Which “PBM E-score” value did it give?
The value was -0.246.

For GCTGCGGA, which “PBM E-score” value is on record?
The value was -0.256.

Which “PBM E-score” value does the source give for ACTCCATC here?
Its value is -0.223.

With AGTGTCAG as the sequence, how does the “PBM E-score” value read?
The value was -0.0679.

How did the “PBM E-score” value turn out when AAGTTAGG was run?
Its value is 0.037.

For CTTAGGGA, which “PBM E-score” value is on record?
The value was -0.0302.

ACTCGTCA was tested. Which “PBM E-score” value did it give?
Its value is -0.0271.

CACACAGG was tested. Which “PBM E-score” value did it give?
The value was 0.14.

GTTCTTCA was tested. Which “PBM E-score” value did it give?
Its value is 0.0923.

With AAATCGTA as the sequence, how does the “PBM E-score” value read?
The value was 0.0774.

How did the “PBM E-score” value turn out when ATGGCAAC was run?
The value was -0.0341.

For GAATGGTA, which “PBM E-score” value is on record?
Its value is 0.132.

How did the “PBM E-score” value turn out when GTGTGTGA was run?
The value was 0.0987.

Which “PBM E-score” value does the source give for AGTGTCTC here?
Its value is -0.201.

With CCGTTTAA as the sequence, how does the “PBM E-score” value read?
Its value is 0.0414.

AATCCTCG was tested. Which “PBM E-score” value did it give?
The value was -0.0621.

With ACCAGTTA as the sequence, how does the “PBM E-score” value read?
Its value is 0.103.

CGCTGTCA was tested. Which “PBM E-score” value did it give?
Its value is -0.2.

How did the “PBM E-score” value turn out when ATATGGCA was run?
Its value is 0.0453.

Which “PBM E-score” value does the source give for CACCCACG here?
Its value is 0.0103.

GCTGCCAA was tested. Which “PBM E-score” value did it give?
The value was -0.176.

How did the “PBM E-score” value turn out when GATGTTGC was run?
The value was 0.0102.

Which “PBM E-score” value does the source give for ACAGACTC here?
The value was -0.0283.

With AAAGATCC as the sequence, how does the “PBM E-score” value read?
Its value is -0.115.

For AGGTTCCG, which “PBM E-score” value is on record?
Its value is -0.0365.

How did the “PBM E-score” value turn out when CTCTTTTA was run?
The value was -0.141.

Which “PBM E-score” value does the source give for CAGGGTCG here?
Its value is -0.185.

Which “PBM E-score” value does the source give for CCCGGATC here?
Its value is -0.207.

TGCACAAA was tested. Which “PBM E-score” value did it give?
The value was 0.0698.

How did the “PBM E-score” value turn out when AGCCATAC was run?
The value was -0.163.
